Source: PubChem BioAssay (Tox21)
The shares of active, inactive and inconclusive entries below differ from those in the screen. Entries that show only a call come without a potency. For part of these data: A potency beside an inconclusive call is a rough fit, not a confirmed value. Calls of active or inactive are those of the source. Unless noted, calls follow the shape of the full dose curve.

target: Progesterone receptor (Homo sapiens) (UniProt P06401); experiment: qHTS assay to identify small molecule agonists of the progesterone receptor (PR) signaling pathway (AID 1346784); settings: PR-UAS-bla HEK293T, beta-lactamase FRET ratio, 16 h; activation: at 92.4 µM (top of the series) unless noted; also: nearly all actives have a fitted effect of over 30% in size; also: potency is read from the fitted curve at half-maximal effect
Outline: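 PR-UAS-bla HEK 293T cells carrying a UAS-driven beta-lactamase reporter were seeded in medium with 2% charcoal-stripped FBS, preincubated 6 hr at 37C, then exposed to compounds in DMSO for 16 hr; agonism was read by LiveBLAzer B/G FRET fluorescence.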
Tags tell the direction and shape of the fitted curve or compound fluorescence and quenching.

Sequence of UniProt P06401 (P06401 whole entry, looked up): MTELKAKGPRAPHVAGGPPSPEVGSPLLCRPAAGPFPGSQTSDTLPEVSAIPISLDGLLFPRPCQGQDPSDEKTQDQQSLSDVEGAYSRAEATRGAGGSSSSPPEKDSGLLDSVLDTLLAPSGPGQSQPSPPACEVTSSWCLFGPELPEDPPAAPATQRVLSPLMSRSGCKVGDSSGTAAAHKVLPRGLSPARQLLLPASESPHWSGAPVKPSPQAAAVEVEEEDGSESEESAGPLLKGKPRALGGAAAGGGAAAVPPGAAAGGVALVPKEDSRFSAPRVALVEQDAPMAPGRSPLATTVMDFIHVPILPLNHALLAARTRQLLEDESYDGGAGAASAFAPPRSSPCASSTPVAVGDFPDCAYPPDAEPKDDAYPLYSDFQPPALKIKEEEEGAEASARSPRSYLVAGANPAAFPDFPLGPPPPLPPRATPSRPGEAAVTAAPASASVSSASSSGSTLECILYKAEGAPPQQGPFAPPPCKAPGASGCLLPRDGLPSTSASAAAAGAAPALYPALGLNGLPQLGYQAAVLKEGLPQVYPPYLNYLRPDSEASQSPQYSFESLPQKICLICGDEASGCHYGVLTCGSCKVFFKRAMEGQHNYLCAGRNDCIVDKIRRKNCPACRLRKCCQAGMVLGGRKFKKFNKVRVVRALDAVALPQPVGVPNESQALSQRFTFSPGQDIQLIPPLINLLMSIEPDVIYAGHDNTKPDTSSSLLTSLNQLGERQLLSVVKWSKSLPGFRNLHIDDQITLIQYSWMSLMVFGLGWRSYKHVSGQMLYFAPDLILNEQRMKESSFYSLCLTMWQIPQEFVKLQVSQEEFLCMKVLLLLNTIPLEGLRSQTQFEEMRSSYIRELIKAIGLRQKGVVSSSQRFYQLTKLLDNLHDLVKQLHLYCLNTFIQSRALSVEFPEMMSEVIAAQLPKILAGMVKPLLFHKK

**Q.** With `Cc1cccc(C(=O)O)c1` as the compound, how does the Potency read?
**A.** The Potency was “inactive”.

**Q.** For `CCC(O)OC(O)CC` (stereo not drawn), which Potency is on record?
**A.** The Potency was “inactive”.

**Q.** Which Potency does the source give for `CC(CC=O)CCCC(C)(C)O` (stereo not drawn) here?
**A.** Its Potency is inconclusive: 30.5 µM [rising, partial curve, poor fit].

**Q.** With `CN(C(=O)CN(CCO)CC(=O)N(C)C(C)(C)Cc1ccccc1)C(C)(C)Cc1ccccc1` as the compound, how does the Potency read?
**A.** Its Potency is “inactive”.

**Q.** For `CCCCCCCCC=O`, which activation is on record?
**A.** The activation was inconclusive: 25%.

target: Progesterone receptor (Homo sapiens) (UniProt P06401); experiment: qHTS assay to identify small molecule antagonists of the progesterone receptor (PR) signaling pathway (AID 1346795; active = well fitted inhibition curve with a large enough effect in the signal ratio in the repeat runs, not every such curve was filed as active; inconclusive = weak or mixed curves; the % refers to the signal ratio; also: potency is read from the fitted curve at half-maximal effect); settings: PR-UAS-bla HEK293T, beta-lactamase FRET ratio, 16 h; activity change, negative = inhibition: at 92.4 µM (top of the series) unless noted
Outline: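 PR-UAS-bla HEK293T cells carrying a UAS-driven beta-lactamase reporter were plated in medium with 2% charcoal-stripped FBS and rested 6 hr at 37C. Compounds were added with 1 nM R5020 (final) for 16 hr, then FRET substrate loaded 2 hr at room temperature.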

**Q.** For `CC(=O)c1ccc([N+](=O)[O-])cc1`, which activity change, negative = inhibition is on record?
**A.** Its activity change, negative = inhibition is inconclusive: 5.71%.

**Q.** For `CCCCCCCC/C=C\CCCCCCCC(=O)OCCOC(=O)CCCCCCC/C=C\CCCCCCCC`, which Potency is on record?
**A.** Its Potency is inconclusive: 79.8 µM [rising, partial curve, poor fit].

**Q.** Which Potency does the source give for `CN(C)CCN1C(=O)c2ccccc2N(C)c2ccccc21` here?
**A.** The Potency was “inactive”.

**Q.** Which activity change, negative = inhibition does the source give for `CCCCCCCC/C=C\CCCCCCCCCCCC(=O)O` here?
**A.** Its activity change, negative = inhibition is inconclusive: -0.365%.

**Q.** With `Oc1ccc(C2CNCCc3c2cc(O)c(O)c3Cl)cc1` (stereo not drawn) as the compound, how does the Potency read?
**A.** Its Potency is “inactive”.

**Q.** Which activity change, negative = inhibition does the source give for `Cc1ncc(CO)c(CO)c1O` here?
**A.** Its activity change, negative = inhibition is inconclusive: 1.23%.

**Q.** For `O=S(=O)(O)CCCN1CCOCC1`, which Potency is on record?
**A.** Its Potency is “inactive”.

**Q.** For `Cc1ccnc2c1NC(=O)c1cccnc1N2C1CC1`, which Potency is on record?
**A.** The Potency was “inactive”.

**Q.** For `CCNc1nc(NC(C)CC)nc(OC)n1` (stereo not drawn), which activity change, negative = inhibition is on record?
**A.** The activity change, negative = inhibition was inconclusive: -13.1%.

**Q.** Which Potency does the source give for `CC=C(Cl)Cl` here?
**A.** The Potency was “inactive”.

**Q.** Which activity change, negative = inhibition does the source give for `Nc1nc(-c2ccccc2)cs1` here?
**A.** Its activity change, negative = inhibition is inconclusive: -44%.

**Q.** For `Cc1cc(N)n(-c2ccccc2)n1`, which Potency is on record?
**A.** The Potency was “inactive”.

**Q.** Which Potency does the source give for `CC(C)C=O` here?
**A.** Its Potency is “inactive”.

**Q.** With `C=C(C)CC(C)(C)C` as the compound, how does the activity change, negative = inhibition read?
**A.** The activity change, negative = inhibition was inconclusive: 6.5%.

**Q.** With `CC(C)c1cccc(C(C)C)c1NC(=O)NS(=O)(=O)c1cc(C(C)(C)O)co1` as the compound, how does the Potency read?
**A.** The Potency was “inactive”.

**Q.** With `CCn1cc(C(=O)O)c(=O)c2cc(F)c(N3CCNC(C)C3)c(F)c21` (stereo not drawn) as the compound, how does the Potency read?
**A.** The Potency was “inactive”.

**Q.** With `CCCCOC(=O)C(C)O` (stereo not drawn) as the compound, how does the Potency read?
**A.** Its Potency is “inactive”.

**Q.** Which Potency does the source give for `CC(C)C(O)(c1ccc(OC(F)(F)F)cc1)c1cncnc1` (stereo not drawn) here?
**A.** Its Potency is active: 30.5 µM.

**Q.** With `CCCCCCOCCOCCO` as the compound, how does the Potency read?
**A.** Its Potency is “inactive”.

**Q.** Which Potency does the source give for `CCCCCCn1c(=O)c2c(ncn2C)n(C)c1=O` here?
**A.** Its Potency is “inactive”.

**Q.** For `O=Cc1ccccc1O`, which Potency is on record?
**A.** Its Potency is “inactive”.

**Q.** With `O=c1[nH]cnc2nc[nH]c12` as the compound, how does the activity change, negative = inhibition read?
**A.** Its activity change, negative = inhibition is inconclusive: 7.32% [at 42.5 µM].

**Q.** Which Potency does the source give for `Cc1cc(O)c(C)c(C)c1O` here?
**A.** The Potency was “inactive”.

**Q.** Which Potency does the source give for `O=C(CCCCCCCCC#CI)Oc1ccccc1` here?
**A.** The Potency was “inactive”.

**Q.** For `CC(C)CCCCCOC(=O)CS`, which Potency is on record?
**A.** The Potency was inconclusive: 30.6 µM [rising, full curve, poor fit].

**Q.** With `CCOC(=O)C(F)(F)F` as the compound, how does the Potency read?
**A.** The Potency was “inactive”.

**Q.** For `COC(=O)CC(C)CCC=C(C)C` (stereo not drawn), which activity change, negative = inhibition is on record?
**A.** Its activity change, negative = inhibition is inconclusive: -24.8%.

**Q.** Which activity change, negative = inhibition does the source give for `CC1=CC(O)CC(C)(C)C1` (stereo not drawn) here?
**A.** The activity change, negative = inhibition was inconclusive: 10%.

**Q.** Which Potency does the source give for `CC(=O)OCC(COC(C)=O)OC(C)=O` here?
**A.** Its Potency is “inactive”.

**Q.** With `CCOc1c(N2CCOCC2)cnn(C)c1=O` as the compound, how does the activity change, negative = inhibition read?
**A.** The activity change, negative = inhibition was inconclusive: 10.7% [at 42.5 µM].

**Q.** With `Cc1ccco1` as the compound, how does the activity change, negative = inhibition read?
**A.** Its activity change, negative = inhibition is inconclusive: 8.24%.

**Q.** Which Potency does the source give for `C=C[Si](OC(=C)C)(OC(=C)C)OC(=C)C` here?
**A.** Its Potency is “inactive”.

**Q.** Which Potency does the source give for `Cc1ccc2c(c1)C(=O)OC2=O` here?
**A.** The Potency was “inactive”.

**Q.** With `CCC(C)(C)C1CCCCC1OC(C)=O` (stereo not drawn) as the compound, how does the Potency read?
**A.** Its Potency is “inactive”.

system: not listed separately; experiment: qHTS assay to identify small molecule agonists of the progesterone receptor (PR) signaling pathway - cell viability counter screen (AID 1346799); settings: PR-UAS-bla HEK293T viability, CellTiter-Glo luminescence, 16 h; series mostly up to 92.4 µM; also: potency is read from the fitted curve at half-maximal effect; nearly all actives have a fitted effect of over 45% in size
Outline: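 PR-UAS-bla HEK293T cells, 3,000 per well in medium with 2% charcoal-stripped FBS, were preincubated 6 hr at 37C, then exposed to compounds for 16 hr; viability was read as CellTiter-Glo luminescence after 30 min at room temperature.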

**Q.** Which Potency does the source give for `Cc1ncc(CO)c(CO)c1O` here?
**A.** The Potency was inconclusive: 13.3 µM [rising, single point].

**Q.** Which Potency does the source give for `CC(CC=O)CCCC(C)(C)O` (stereo not drawn) here?
**A.** Its Potency is inconclusive: 19.2 µM [cytotoxic, partial curve, poor fit].

**Q.** Which Potency does the source give for `CCCCCCCCC=O` here?
**A.** The Potency was inconclusive: 5.45 µM [cytotoxic, single point].

system: not listed separately; experiment: qHTS assay to identify small molecule agonists of the TGF-beta/Smad signaling pathway (AID 1346859; active = well fitted activation curve with a large enough effect in the signal ratio in the repeat runs, not every such curve was filed as active; inconclusive = weak or mixed curves; the % refers to the signal ratio; also: potency is read from the fitted curve at half-maximal effect); settings: SBE-bla HEK293T, TGF-beta/Smad beta-lactamase reporter, 5 h; activation: at 76.8 µM (top of the series) unless noted
Outline: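 HEK 293T cells stably carrying a beta-lactamase reporter driven by the Smad binding element were seeded overnight, exposed to DMSO-dissolved compounds for 5 hr at 37 C, 5% CO2, then loaded with FRET substrate for 2 hr at room temperature.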

**Q.** For `Cc1cccc(C(=O)O)c1`, which Potency is on record?
**A.** Its Potency is inconclusive: 54.3 µM [rising, partial curve, poor fit].

**Q.** For `CCC(O)OC(O)CC` (stereo not drawn), which Potency is on record?
**A.** Its Potency is “inactive”.

**Q.** For `CCCCCCCCC=O`, which Potency is on record?
**A.** The Potency was inconclusive: 61.7 µM [rising, partial curve, poor fit].

system: not listed separately; experiment: qHTS assay to identify small molecule antagonists of the TGF-beta/Smad signaling pathway (AID 1346924; active = well fitted inhibition curve with a large enough effect in the signal ratio in the repeat runs, not every such curve was filed as active; inconclusive = weak or mixed curves; the % refers to the signal ratio); settings: SBE-bla HEK293T, TGF-beta/Smad reporter, beta-lactamase ratio; activity, negative = inhibition: at 76.8 µM (top of the series) unless noted
Outline: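 SBE-bla HEK 293T cells were plated overnight, then received compound in DMSO plus TGF-beta1 (added as a 0.25 ng/mL solution) and were incubated 5 h at 37 C. Beta-lactamase reporter activity was read after 2 h at room temperature with LiveBLAzer B/G FRET substrate (ex 405, em 460/530 nm).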

**Q.** With `Cc1cccc(C(=O)O)c1` as the compound, how does the activity, negative = inhibition read?
**A.** The activity, negative = inhibition was inconclusive: -13.7%.

**Q.** With `CN(C(=O)CN(CCO)CC(=O)N(C)C(C)(C)Cc1ccccc1)C(C)(C)Cc1ccccc1` as the compound, how does the activity, negative = inhibition read?
**A.** Its activity, negative = inhibition is inconclusive: -23.3% [at 35.3 µM].

**Q.** For `CCCCCCCCC=O`, which activity, negative = inhibition is on record?
**A.** Its activity, negative = inhibition is inconclusive: 3.12%.
